From PubChem BioAssay AID2101 (National Center for Advancing Translational Sciences (NCATS), 2009)
Among all 330,000 compounds or so, about 300 (0.091%) were called active. Inconclusive means that the source gave no clear call. Such entries were picked first, then a sample of the others. Calls follow the shape of the dose curve; as a rule, active = well fitted inhibition curve with a large enough effect; inconclusive = small, poorly fitted or top-dose-only effect, or effect the other way, or another doubt; inactive = no such curve, though single readings can be large or run the other way. No potency is given beside an inconclusive call; the fits are too rough.

The compounds below were run against Lysosomal acid glucosylceramidase (Homo sapiens) (UniProt P04062) (assay: qHTS Assay for Inhibitors and Activators of N370S glucocerebrosidase as a Potential Chaperone Treatment of Gaucher Disease). Conditions: N370S GC spleen homogenate, 4MU-glucoside fluorescence; activity change, negative = inhibition: at 59.4 µM (top of the series) unless noted.
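For activity change, negative = inhibition in this document: 0% = full enzyme activity and -100% = no enzyme basal.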
Potency is read from the fitted curve at half-maximal effect.

Question: For `C=C(C)c1cccc(C(C)(C)NC(=O)Nc2ccc(C)cn2)c1`, which Potency is on record?
Answer: The Potency was inconclusive [activator, partial curve].

Question: How did the Potency turn out when `O=C(Oc1cc(=O)oc2ccccc12)c1ccco1` was run?
Answer: Its Potency is inconclusive [activator, partial curve, poor fit].

Question: For `O=C(NCc1ccccc1)c1ccc(CS(=O)(=O)Cc2ccc(F)cc2)o1`, which Potency is on record?
Answer: The Potency was inconclusive [inhibitor, single point].

Question: Which Potency does the source give for `Cc1cccn2c(=O)c3cc(C#N)c(=NC(=O)c4cccs4)n(CCCOC(C)C)c3nc12` here?
Answer: Its Potency is inconclusive [activator, partial curve].

Question: How did the Potency turn out when `CC(C)(C)C1CCC(=NOC(=O)c2ccc(F)cc2)CC1` (stereo not given) was run?
Answer: Its Potency is inconclusive [activator, partial curve].

Question: How did the Potency turn out when `CCN(CC)S(=O)(=O)c1ccc(N2CCCC2)c(C(=O)OCC(=O)/C(C#N)=C(\C)N)c1` was run?
Answer: The Potency was inconclusive [activator, partial curve].

Question: Which Potency does the source give for `CC(CNC(=O)Cn1ccc2cc(S(=O)(=O)N3CCCC3)ccc21)c1ccccc1` (stereo not given) here?
Answer: Its Potency is inconclusive [activator, partial curve].

Question: With `COc1ccc(NC(=O)CC2C(=O)N(CCc3ccccc3)C(=S)N2Cc2cccnc2)cc1` (stereo not given) as the compound, how does the Potency read?
Answer: The Potency was inconclusive [inhibitor, partial curve, poor fit].

Question: With `CCC(C)n1c(SCC(=O)Nc2cc(C(C)(C)C)nn2-c2ccccc2)nc2ccccc2c1=O` (stereo not given) as the compound, how does the Potency read?
Answer: Its Potency is inconclusive [activator, full curve].

Question: How did the Potency turn out when `Cc1ccc(-c2noc(CN(C(=O)c3cccs3)C(C)C)n2)cc1` was run?
Answer: The Potency was inconclusive [activator, partial curve].

Question: How did the “activity change, negative = inhibition” value turn out when `Cc1ccc(/C=C/C2=C[C@]3(C)C[C@]2(C)[C@H](c2ccc(C)cc2)CC3=O)cc1` was run?
Answer: The value was inactive: -15.5%.

Question: `CCSc1nc2c(cnn2-c2ccccc2)c(=O)n1N` was tested. Which “activity change, negative = inhibition” value did it give?
Answer: The value was inactive: 6.21%.

Question: For `COCCNC(=S)N/N=C/c1c(C)[nH]c2ccccc12`, which Potency is on record?
Answer: Its Potency is inconclusive [activator, partial curve].

Question: Which Potency does the source give for `COc1ccc(-c2nc3c(c(=O)[nH]c(=O)n3Cc3ccccc3)n2Cc2ccccc2)cc1` here?
Answer: The Potency was inconclusive [activator, partial curve].

Question: How did the Potency turn out when `CCCN1CCN(CCCNC(=O)c2cc3c(s2)-c2c(C)cccc2OC3)CC1` was run?
Answer: Its Potency is inconclusive [activator, partial curve].

Question: `O=C(C1CCCCN1S(=O)(=O)c1ccccc1)N1CCCCC1` (stereo not given) was tested. Which Potency did it give?
Answer: The Potency was inconclusive [inhibitor, full curve, poor fit].

Question: For `CCCn1c(-c2cccc(F)c2)nc2c1c(=O)[nH]c(=O)n2Cc1ccccc1`, which Potency is on record?
Answer: The Potency was inconclusive [activator, partial curve].

Question: How did the Potency turn out when `O=C(c1ccc(Br)o1)N1N=C(c2ccc(Cl)cc2)CC1c1ccco1` (stereo not given) was run?
Answer: The Potency was inconclusive [activator, partial curve].

Question: `COc1ccccc1CNC(=O)c1cnc2sccn2c1=O` was tested. Which Potency did it give?
Answer: The Potency was inconclusive [activator, single point].

Question: For `COc1ccc(CCNC(=O)c2cc(-c3ccc(C)c(C)c3O)n[nH]2)cc1OC`, which “activity change, negative = inhibition” value is on record?
Answer: Its value is inactive: -1.11%.

Question: Which Potency does the source give for `O=c1c2ccccc2nc(SCc2ccccc2)n1CC1CCCO1` (stereo not given) here?
Answer: The Potency was inconclusive [activator, partial curve].

Question: With `O=C(CCCN1CCC(O)(c2ccc(Cl)cc2)CC1)c1ccc(F)cc1` as the compound, how does the Potency read?
Answer: Its Potency is inconclusive [inhibitor, full curve, poor fit].

Question: How did the “activity change, negative = inhibition” value turn out when `CN(C)c1cccc(C(=O)Nc2ccc(N3CCOCC3)cc2)c1` was run?
Answer: The value was inactive: 7.21%.

Question: Which Potency does the source give for `Cc1ccc(NC(=O)CCN2C(=O)c3ccccc3Sc3ncccc32)cc1` here?
Answer: Its Potency is inconclusive [activator, single point].

Question: For `Cc1cc(C)n(-c2cc(C(C)(C)C)nc3c(-c4ccccc4)cnn23)n1`, which Potency is on record?
Answer: Its Potency is inconclusive [activator, partial curve].

Question: With `Clc1ccc(CN=C2Nc3ccccc3CS2)cc1` as the compound, how does the “activity change, negative = inhibition” value read?
Answer: The value was inactive: -14.2%.

Question: Which Potency does the source give for `Cc1cc(NC(=O)c2cc(-c3ccc(OC(C)C)cc3)nc3ccccc23)no1` here?
Answer: The Potency was inconclusive [activator, single point].

Question: Which Potency does the source give for `Clc1ccc(C2[C@H]3CN(Cc4ccc(-c5ccccc5)cc4)[C@H](c4ccccc4)C34CC2(c2cccnc2)C4)cn1` (stereo not given in full) here?
Answer: Its Potency is inconclusive [inhibitor, partial curve].

Question: How did the Potency turn out when `CN(C)C(=O)COC(=O)c1ccccc1OCC(=O)Nc1ccc(SC(F)F)cc1` was run?
Answer: The Potency was inconclusive [activator, partial curve].

Question: With `O=c1cc(N2CCCCC2)c(-c2ccccc2)nn1Cc1ccc(Cl)cc1` as the compound, how does the Potency read?
Answer: Its Potency is inconclusive [activator, partial curve].

Question: Which “activity change, negative = inhibition” value does the source give for `COc1ccc(-c2cc(C(F)(F)F)nc(S(=O)(=O)CCCC(=O)Nc3cc(C)on3)n2)cc1OC` here?
Answer: Its value is inactive: 0.334%.

Question: How did the Potency turn out when `C=CCN1C(c2ccc(Br)cc2)=CS/C1=C(/C#N)c1nnc(N2CCOCC2)n1-c1ccccc1` was run?
Answer: The Potency was inconclusive [inhibitor, single point].

Question: Which Potency does the source give for `CCOC(=O)c1c(-c2ccc(C)o2)csc1NC(=O)CN(C)CC(=O)Nc1ccc(C)cc1` here?
Answer: Its Potency is inconclusive [activator, partial curve].

Question: With `COc1cc(OC)cc(C(=O)N[C@H](C(=O)OCC(=O)Nc2ccc(C(C)C)cc2)C(C)C)c1` as the compound, how does the Potency read?
Answer: The Potency was inconclusive [activator, partial curve].

Question: `C=CCN(C(C(=O)OC)C(C)C)S(=O)(=O)C=C` (stereo not given) was tested. Which “activity change, negative = inhibition” value did it give?
Answer: Its value is inactive: -4.74%.

Question: For `O=C(N/N=C/c1ccccc1)c1ccc(-c2ccccc2)cc1`, which “activity change, negative = inhibition” value is on record?
Answer: Its value is inactive: -9.33%.

Question: Which Potency does the source give for `CCOc1ccc(/C=C2\SC(=S)N(CCCC(=O)NCCCN3CCOCC3)C2=O)cc1` here?
Answer: The Potency was inconclusive [inhibitor, partial curve].

Question: For `COc1ccc(-c2nn(C)c(=O)c3ccccc23)cc1CNC(=O)C1CCCCC1`, which Potency is on record?
Answer: Its Potency is inconclusive [activator, single point].

Question: How did the Potency turn out when `COc1ccc(N2CCN(C(=O)c3cn(C)c4ccc(S(=O)(=O)N5CCOCC5)cc4c3=O)CC2)cc1` was run?
Answer: Its Potency is inconclusive [inhibitor, single point].

Question: Which Potency does the source give for `CCCCCNC(=O)c1ccc(NS(=O)(=O)c2ccc3[nH]c(=O)[nH]c3c2)cc1` here?
Answer: The Potency was inconclusive [inhibitor, single point].
